# In the RNAGym collection of RNA variant scans (doi:10.7554/elife.90254):
# Read counts are not given, so values of variants with three or more changes are uncertain.
# B1: LINE1-mini (parent)
# chain: GGCAGAGCUCAACACAGCGUGGCAAAGUGGCUGUGGCUAGACUGCC
# Variants of: B1
# Assay: self-cleavage, relative activity (ratio to wild type); higher = more cleavage; in vitro, sequencing; the parent is a self-cleaving ribozyme
row,Variant,self-cleavage
1,C3G A14G G17A,0.05
2,C3A G27U G33C,0.06
3,C3A U20A C31A U38A,0.17
4,C3A U20G C45G,0.15
5,C3A U32A A41G,0.1
6,C3G A24G G35U,0.48
7,C3G A4U G7C G30U,0.06
8,C3G A4G C10G G33U G40U,0.01
9,C3A U34G G40A,0.05
10,C3G A4U C15A A26C,0.06
11,C3A U20A G21U G27U C46G,0.18
12,C3A G22C C45U,1.01
13,C3A G19C G22U A24G A25U C31G C46A,0.29
14,C3A G21U C45A C46G,0.18
15,C3A U9G C13G,0.17
16,C3G A12G G19U U34C U43A,0.05
17,C3G A12U A16C G30A A41C,0.01
18,C3G A6U A16U G27U U38G C42U,0.01
19,C3G A25G A41C,0.02
20,C3G A11G C18A C31G G33A U43G G44U,0
21,C3A G22C C31U G35A,0.09
22,C3A G27C G30U,0.35
23,C3G A11G G36U C42U,0
24,C3G A24G G29A U34A C37U U38A,0.12

row,Variant,self-cleavage
1,C3A G17A C37A,0.11
2,C3G A11C A16C C23A A26U,0.01
3,C3A G21A C23A A25C C31G,0.08
4,C3A U20A A26G U34C G35C,0.14
5,C3G A6C G7C C8A G33U G35A,0.09
6,C3G A4G C13U C37G C42G,0.01
7,C3A G19U G27C U34G C42G,0.07
8,C3A G17U G19A,0.14
9,C3A G19U G21A G27U,0.16
10,C3G A4U C10A,0.03
11,C3A U9A A14G G29A,0.24
12,C3G A25G C37A A41G,0.16
13,C3A U20A A26C U32G A39C G40A,0.04
14,C3A G33U C42U,0.25
15,C3G A16U U32G,0.27
16,C3A G29U U38G A39C,0.11
17,C3A U20A A39G,0.36
18,C3A U38C G40A U43A,0.02
19,C3A G7U G29A C46U,0.17
20,C3G A6U G33C,0.09
21,C3A G27U G35U C45A,0.08
22,C3G A11U A16G,0.04
23,C3G A12U A41C,0.11
24,C3G A12U C13U C15U G22A G40C,0.1

row,Variant,self-cleavage
1,C3G A24C U38G,0.04
2,C3G A6G A12G C13A A41G,0.01
3,C3G A4C A16U G29C,0.09
4,C3A U9G A16C A26C G27U,0.14
5,C3A G22C A25U,0.35
6,C3A G19A G35C,0.15
7,C3A U43G G44C,0.05
8,C3A U9G G35U G44U,0.11
9,C3A G22A G40A,1.42
10,C3G A12U C15A A16C C31G G35U,0.04
11,C3G A24U A25G,2.34
12,C3A G19U U20C,0.15
13,C3G A4G G5A G22U,0.11
14,C3A U28G G29U G36C G40C G44A,0.04
15,C3A G19U A26G G33U,0.05
16,C3A G19A U28G G36C A39C U43C,0.13
17,C3A U9C A11G A12C A14U C18G,0
18,C3G A4G C8U A16C G17U G36A C37A G40A,0.05
19,C3A U20C C23A A26G,0.09
20,C3A G33U U43C C45A,0.29
21,C3A U9A C18U,0.8
22,C3A U28A G44A,0.47
23,C3A G17C G30U C45A,0.27
24,C3G A16U G35C C46A,0.05

row,Variant,self-cleavage
1,C3G A4C C10A G22U A39G U43G,0.03
2,C3A G27C U34C C37G G44C,0.01
3,C3G A4U G22U G33U,0.12
4,C3A G17U A26C,0.2
5,C3G A4C G19C C23A C42A,0.34
6,C3A G21A C42G,0.03
7,C3A G22C U34G,0.1
8,C3G A11C C13A C18U U32A G36A,0.03
9,C3G A11G C37U U43C,0
10,C3G A14C C18A U43A C46U,0.11
11,C3A G22A G29A,0.57
12,C3A U9G A25U U34C U38A A41G,0.07
13,C3A U20A G44A,0.38
14,C3G A6C C23U C31U,0.16
15,C3A U9A A14C G21U G30U C46A,0.05
16,C3G A11U A16U G30C C37A,0.01
17,C3A U9C C23G U28G U32A U34G,0.02
18,C3G A16C G19U A26U,0.03
19,C3A G7U A26U G27A,0.23
20,C3A G22C G40C G44A,0.04
21,C3A U9G G22U A41G,0.21
22,C3G A6G C46G,0.14
23,C3G A12C C37U,0.02
24,C3A U20G U28A U34G C42A,0.03

row,Variant,self-cleavage
1,C3G A14C C45G,0.07
2,C3G A4U G5A G40C,0.04
3,C3A G21U G22A U28A,0.11
4,C3G A16G A24C,0.03
5,C3G A14C G21C G27C,0.09
6,C3A U20A G30U,0.18
7,C3G A6C G17C G19C A24C A26U,0.12
8,C3A G17U A24C,0.08
9,C3G A11G G29U G30C,0.04
10,C3G A11C C42G G44C C46U,0.01
11,C3A G17U A25G C31G,0.13
12,C3A G17A G19U C45A C46G,0.13
13,C3A U28C G29A U34A G40U,0.21
14,C3G A6U A12G U28C,1.26
15,C3A U20A G21A,0.68
16,C3A U20G A26U A41C C45G,0.03
17,C3A G21U C45G,0.68
18,C3A G21A G27C,1.32
19,C3A U28G G36A,0.29
20,C3A U9A G17U C42G,0.14
21,C3A U28A A41G,0.04
22,C3G A25C C37A,0.77
23,C3A G7U G30A G36U,0.66
24,C3A U9G G21U G33C,0.02

row,Variant,self-cleavage
1,C3G A4C A39C,0.07
2,C3A G29C C42A,0.13
3,C3A U28A G35U G36U,0.22
4,C3A G27C C31A,0.25
5,C3G A4G G27A U32C,0.09
6,C3G A14G U28A U43C,0.24
7,C3A G35C G40A,0.21
8,C3A G22C G35U,0.15
9,C3G A14C A25U C46G,0.01
10,C3A G7U U9A C13G U32G,0.08
11,C3A U38A G44U,1.48
12,C3G A4C C31A C46G,0.07
13,C3A U38A C46U,0.11
14,C3A U9C A12C C18U U28G C31U,0.02
15,C3A G27A U38A U43C,0.06
16,C3G A4U U34C C37A,0.05
17,C3A G21C G44C,0.8
18,C3G A6C C10A G21A U28A G35U C42A,0.01
19,C3A U20G G35U,0.24
20,C3A G17U U20C,0.25
21,C3G A4C C23G G33C A39U,0.03
22,C3A U9G C13G G40U G44U,0.12
23,C3A U9A A14U C23G G40A,0.59
24,C3A G22A U43C,0.58

row,Variant,self-cleavage
1,C3A U9C G27U C42U G44A,0.71
2,C3G A4C A6G C15A A41G,0.05
3,C3G A6C U9C G22C G33U G36A,0.05
4,C3G A6G G7C A11U A16C C18U C31A,0.01
5,C3G A4U A11G G27U C45A,0.03
6,C3A G19C U32C,0.1
7,C3G A4U A39G,0.04
8,C3G A14U A16C,0.14
9,C3A G27C G33C G40C,0.14
10,C3A G33C G36C,0.06
11,C3G A11G G17A C46A,0.03
12,C3G A14U U32G,0.08
13,C3G A12U C13U U20A,0.05
14,C3G A11U A41G,0.01
15,C3G A12U A24G C31U,0.01
16,C3A G21C G36C,0.24
17,C3A G17A G33A C46A,0.16
18,C3A G27U G44A,0.9
19,C3G A14U A25C G33U,0.03
20,C3G A6U G30U,0.7
21,C3G A11U G29U,0.05
22,C3A G19U G22C A26U,0.16
23,C3A G19C C23U G33A A39C C42A,0.08
